In all, about 310,000 compounds went through this assay and about 2,200 (0.71%) showed an effect of 50% or more. The effect is printed as a negative number. The list shows a part of the results.
Target: human ether-à-go-go-related gene (hERG) potassium channel (human, UniProt Q12809)
Assay: primary screen, population patch clamp on CHO cells stably expressing hERG

Sequence of human ether-à-go-go-related gene (hERG) potassium channel (Q12809 whole entry, looked up): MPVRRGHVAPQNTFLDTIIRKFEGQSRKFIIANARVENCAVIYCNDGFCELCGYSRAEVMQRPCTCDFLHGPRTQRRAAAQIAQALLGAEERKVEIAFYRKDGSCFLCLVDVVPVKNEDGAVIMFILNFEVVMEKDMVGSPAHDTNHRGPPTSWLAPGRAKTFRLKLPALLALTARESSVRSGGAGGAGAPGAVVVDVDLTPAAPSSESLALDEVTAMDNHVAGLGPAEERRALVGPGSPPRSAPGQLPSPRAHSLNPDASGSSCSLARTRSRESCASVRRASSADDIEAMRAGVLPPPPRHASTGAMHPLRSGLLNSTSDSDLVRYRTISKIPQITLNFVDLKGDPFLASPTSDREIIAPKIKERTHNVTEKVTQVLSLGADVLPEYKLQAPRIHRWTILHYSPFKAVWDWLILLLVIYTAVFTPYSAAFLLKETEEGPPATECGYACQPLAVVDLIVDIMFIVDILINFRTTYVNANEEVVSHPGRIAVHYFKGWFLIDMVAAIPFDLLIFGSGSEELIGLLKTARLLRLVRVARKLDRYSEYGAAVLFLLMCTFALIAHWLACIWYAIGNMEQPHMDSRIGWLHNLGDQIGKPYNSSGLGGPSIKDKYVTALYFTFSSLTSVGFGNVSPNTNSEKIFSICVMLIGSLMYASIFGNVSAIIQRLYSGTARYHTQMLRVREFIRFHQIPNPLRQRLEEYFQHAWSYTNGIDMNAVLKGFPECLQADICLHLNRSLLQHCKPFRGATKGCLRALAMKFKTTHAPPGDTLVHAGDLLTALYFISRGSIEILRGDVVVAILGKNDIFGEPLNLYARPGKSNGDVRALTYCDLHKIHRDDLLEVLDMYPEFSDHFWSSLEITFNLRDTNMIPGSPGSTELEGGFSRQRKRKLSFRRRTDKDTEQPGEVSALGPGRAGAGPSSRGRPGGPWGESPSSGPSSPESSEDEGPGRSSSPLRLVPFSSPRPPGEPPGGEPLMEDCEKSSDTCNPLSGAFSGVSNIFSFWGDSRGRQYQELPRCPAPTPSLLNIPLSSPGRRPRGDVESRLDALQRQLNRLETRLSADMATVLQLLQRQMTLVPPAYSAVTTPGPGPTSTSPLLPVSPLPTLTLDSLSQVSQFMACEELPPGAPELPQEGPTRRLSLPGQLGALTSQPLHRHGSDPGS

SMILES | hERG current change (%, negative = inhibition) at 1uM
CN(C)CCNC(=O)/C=C/c1cn(-c2ccccc2)nc1-c1cc2ccccc2oc1=O | 4.97%
CCn1c(SCC(=O)NCc2ccc(F)cc2)nc2c(c1=O)SC(C)C2 (stereo not drawn) | -10.2%
Cc1cc(NC(=O)CCC(=O)N(CC(=O)NCC2CCCO2)c2ccc(C(C)C)cc2)no1 (stereo not drawn) | 9.38%
CCCCNC(=O)[C@@H]1CC=C[C@@H]2CCN(Cc3ccc(Cl)c(Cl)c3)C(=O)[C@@H]21 | 3.92%
Nc1ccc(-c2nc3ccc(N)cc3o2)cc1 | 15.7%
O=C(Nc1nnc(-c2ccc(F)cc2)s1)Nc1ccccc1F | 11.9%
Cc1ccc(S(=O)(=O)N(C)C)cc1NC(=S)N1CCN(Cc2ccc3c(c2)OCO3)CC1 | 7.23%
Cn1nc(C(F)(F)F)c(C(=O)Nc2ccc(F)cc2F)c1Sc1ccc(Cl)cc1 | 6.25%
CCC(C(=O)Oc1c(C(C)C)cccc1C(C)C)c1ccccc1 (stereo not drawn) | -0.176%
COc1ccc(N=C2S/C(=C\c3cc(C)n(C)c3C)C(=O)N2CC(C)C)cc1 | 3.13%
CCc1nnc(NS(=O)(=O)c2ccc(NC(=O)c3cccc(OC(F)(F)C(F)F)c3)cc2)s1 | -0.458%
CC1CCCC(C)N1S(=O)(=O)c1ccc(NC(=O)c2ccccc2C(=O)N2CCOCC2)cc1 (stereo not drawn) | 7.16%
Cc1ccsc1C(=O)OCc1cc(=O)n2ccsc2n1 | 4.61%
O=C(Nc1ccccc1)c1ccc(S(=O)(=O)NCc2cccnc2)cc1 | 14.8%
CC(=O)N(Cc1cccs1)C1CCOC(C)(C)C1 (stereo not drawn) | 7.46%
COc1cc2nc(CC(C)C)n(NC(=O)c3ccccc3)c(=O)c2cc1OC | 10.5%
COc1cccc(-c2csc(NC(=O)Nc3ccccc3)n2)c1 | 11.4%
O=C(Nc1ccccc1)N1CCCN(c2c(Cl)cncc2Cl)CC1 | 11.7%
CCOC(=O)COn1c(-c2cccc(Cl)c2)nc2ccc([N+](=O)[O-])cc21 | 14.9%
O=C(CSc1nnc(-c2ccncc2)n1-c1ccccc1Cl)Nc1ccc(C(=O)O)cc1 | 23.2%
COc1cccc2cc(C(=O)N(Cc3ccccc3)CC3CCCO3)c(=O)oc12 (stereo not drawn) | 6.91%
COc1ccc(NC(=O)CSc2nnc(-c3ccc(F)cc3)o2)cn1 | -5.69%
c1cc2c(cc1Nc1nc(-c3ccc4c(c3)OCO4)cs1)OCCO2 | 12.2%
Cc1csc(NC(=O)CCCSc2nc3ccccc3s2)n1 | -2.7%
O=C(c1cc(COc2cccc3cnccc23)on1)N1CCC(c2ccccc2Cl)C1 (stereo not drawn) | 16.8%
COc1ccc(C2C(C(=O)Nc3cc(OC)c(OC)c(OC)c3)c3ccccc3C(=O)N2C)cc1 (stereo not drawn) | 16.1%
COc1ccccc1-c1csc(NC(=O)c2ccc(N3C(=O)CCC3=O)cc2)n1 | 5.85%

SMILES | hERG current change (%, negative = inhibition) at 1uM
COC(=O)Cn1c2c(c3cc(C)ccc31)CCCC2NC(C)c1ccccc1 (stereo not drawn) | 13.8%
O=C1COc2ccccc2N1Cc1c(F)cccc1Cl | 1.77%
O=C(CCl)Nc1cccc(Oc2ccccc2)c1 | 9.63%
Cc1ccc(N(CC(=O)N/N=C/c2ccc(OC3CSC3)cc2)S(=O)(=O)c2ccccc2)c(C)c1 | 14.7%
COc1ccc(OC)c2sc(NC(=O)CCSc3ccccc3)nc12 | 15.3%
COc1ccc(Cn2nnnc2C(C(C)C)N(Cc2ccco2)Cc2cccs2)cc1 (stereo not drawn) | 13%
CN(CC(=O)NCc1ccc2c(c1)OCO2)S(=O)(=O)c1ccc(F)cc1 | 4.04%
Cc1ccc(S(=O)(=O)C(NC(=O)c2ccccc2)=C(Cl)Cl)cc1 | 9.53%
N#Cc1nc(COc2ccc(F)cc2)oc1NCCN1CCOCC1 | 6.6%
CC1CCCCN1CC(=O)NC(c1ccccc1)c1ccccc1.O=C(O)C(=O)O (stereo not drawn) | -29.9%
ClC(Cl)(Cl)c1nc2ccccc2n2nncc12 | 16%
COc1ccc(S(=O)(=O)N2CCOCC2)cc1NC(=O)CSc1cccc[n+]1[O-] | 0.662%
Cc1cc(C)cc(C(=O)NCC(=O)OCC(=O)N2CCN(S(=O)(=O)c3ccc4ccccc4c3)CC2)c1 | 3.54%
COc1ccc(C(=O)Oc2ccc[nH]c2=O)cc1 | 8.98%
CNC(=O)COC(=O)/C=C/c1c(C)nn(-c2ccccc2)c1C | 6.15%
O=C(Nc1ccc2sc3ccccc3c(=O)c2c1)c1ccccc1Cl | 6.45%
Cc1cc(C)nc(SC(C)C(=O)Nc2ccc(S(N)(=O)=O)cc2)n1 (stereo not drawn) | 2.97%
Cc1c(NC(=O)c2cc(-c3ccc(F)cc3)on2)c(=O)n(-c2ccccc2)n1C | 6.4%
O=C(CCN1C(=O)/C(=C/C=C/c2ccccc2)SC1=S)Nc1nccs1 | -3%
O=C(N/N=C/c1ccc([N+](=O)[O-])cc1)c1cccnc1 | 13.9%
CCOC(=O)c1[nH]c2ccc(Br)cc2c1NC(=O)CCN1CCN(C(=O)OCC)CC1 | -0.782%
NC1=NC[C@H](Cc2ccccc2)N1CCc1cc(C(F)(F)F)cc(C(F)(F)F)c1 | 12.8%
O=C(c1csc(Nc2ccccc2Cl)n1)N1CCCC1 | 4.89%
O=S(=O)(c1ccc(Cl)cc1)N1CCCC1c1nc(-c2ccc(Cl)cc2)no1 (stereo not drawn) | 17.6%
COCCCNC(=S)N/N=C/c1cccc(OC)c1O | 12.7%
CCc1cccc2[nH]c3cc([N+](=O)[O-])ccc3c12 | 8.01%
CC(C)OP(=O)(OC(C)C)C(NC(=O)c1cccc([N+](=O)[O-])c1)C(N)=O (stereo not drawn) | 6.46%
